The whole screen tested about 150,000 compounds, of which about 540 (0.36%) showed an effect of 50% or more. Some of the results follow.

The test system of the assay is Plasmodium falciparum. The assay is described as follows: Primary screen in NF54 nanoGlo assay, in single point, at 2uM, 72h; a lower Z score goes with more inhibition. As to conditions: timepoint 72 hour. It is filed as functional, Erythrocyte.
Take `Cc1ccc2nc(Cn3c(=O)[nH]c4ccccc43)cn2c1`: the % Inhibition (as a rule, the drop in the measured response relative to a control, in per cent) is recorded as -17% and the Z score is 1.97.

As for `C[C@@H](CNC(=O)CCC(N)=O)c1nc2ccccc2o1`, the “% Inhibition” value is recorded as -11% and the Z score stood at 1.76.

On to `O=C(Cc1ccc2cccnc2c1)N1CCOC[C@@H]1CCO`, for which the “% Inhibition” value is reported as -6% and the Z score is reported as 1.17.

As to `Cc1ccc2c(c1)CCCN2C(=O)c1ccc(S(=O)(=O)N2CCNC(=O)C2)cc1`, the “% Inhibition” value is -3% and the Z score is listed as 0.48.

As to `CCc1c(C)nc(C)nc1N1CC[C@H](N(C)C)[C@H](CCCO)C1`, the “% Inhibition” value was -7% and the Z score is on record as 0.97.

Consider `Cn1nc(C2CCCC2)cc1NC(=O)CCc1ccncc1`, for which the “% Inhibition” value is -3% and the Z score was 0.4.

On to `O=C(NC1C2CCc3ccccc3C21)N1CCC(n2cccn2)CC1` (centres undefined), for which the “% Inhibition” value is recorded as -14% and the Z score was determined as 1.65.

On to `Cc1cc([C@@H](NS(=O)(=O)c2c(C)cnn2C)C(=O)O)ccc1Cl`, for which the “% Inhibition” value is given as -3% and the Z score was 0.55.

In the case of `Cc1c[nH]c(CNC(=O)N(CCOc2ccccc2)C[C@H]2CCCO2)n1`, the “% Inhibition” value was -18% and the Z score stood at 2.09.

Take `COc1ccc(-c2cc(C(=O)N3CCC[C@@H]3CO)[nH]n2)cc1`: the “% Inhibition” value is listed as -16% and the Z score was 3.2.

With `Cn1c(=O)n([C@H]2CCN(C(=O)NC3CCCCC3)C2)c2ncncc21`, the “% Inhibition” value was -17% and the Z score came out at 1.72.

For the compound `COC1CCN(S(=O)(=O)c2cc3cc(Cl)ccc3s2)CC1`, the “% Inhibition” value was -5% and the Z score came out at 0.74.

For `Cc1noc(C)c1S(=O)(=O)N1CCCc2cnc(N3CCOCC3)nc21`, the “% Inhibition” value is reported as -15% and the Z score stood at 1.75.

Regarding `Cc1ccccc1-n1c(=O)n(C2CC2)c(=O)c2c1ncn2Cc1ccccc1C#N`, the “% Inhibition” value turned out to be 3% and the Z score was -0.55.

On to `CCC[C@H]1CN(c2ncc(F)c(N3CCOCC3)n2)C[C@@H]1C(=O)O`, for which the “% Inhibition” value is -15% and the Z score came out at 1.89.

For the compound `O=C(N[C@H]1CO[C@@H](CN2CCC(F)(F)CC2)[C@@H]1O)C1CCC1`, the “% Inhibition” value turned out to be 6% and the Z score was -0.93.

For the compound `CCCn1nc(C(=O)N(C)[C@H]2CCS(=O)(=O)C2)ccc1=O`, the “% Inhibition” value is reported as -8% and the Z score stood at 0.71.

Consider `Cc1cc(C(=O)N2C[C@H](C)Oc3cc(F)c(F)cc32)ncn1`, for which the “% Inhibition” value was -7% and the Z score worked out at 1.15.

With `O=C(NC[C@H]1CN(c2ccccc2)C(=O)O1)c1cc2n(n1)CCCO2`, the “% Inhibition” value was -20% and the Z score stood at 3.08.

In the case of `Cc1c(CNC2CCCCC2C(F)(F)F)cc(C#N)n1C` (centres undefined), the “% Inhibition” value is on record as -8% and the Z score came to 1.08.

Turning to `COc1cccc(CNc2nnc(CC3CCCC3)s2)n1`, the “% Inhibition” value is given as -16% and the Z score was determined as 2.39.

Take `OC[C@H]1CCCN1CCN1CCN(Cc2ccccc2)CC1`: the “% Inhibition” value was determined as 2% and the Z score is -0.32.

As to `CCNC(=O)N1CCC(NC(C)c2sccc2C)C1` (centres undefined), the “% Inhibition” value is listed as -2% and the Z score is recorded as 0.2.

Consider `Cc1ccnc(-n2c(=O)c3cc4c(=O)n(-c5cc(C)ccn5)c(=O)c4cc3c2=O)c1`, for which the “% Inhibition” value was -12% and the Z score is reported as 1.48.

`COc1ccc(-c2nc3cccnc3n2[C@H]2CCN(C(=O)NCc3ccc(F)cc3)C2)cc1`: the “% Inhibition” value is on record as -1% and the Z score worked out at 0.12.

As to `O=C1NCCOCCN(C(=O)Nc2ccc3c(c2)OCCO3)[C@@H]2CCCC[C@H]12`, the “% Inhibition” value is -4% and the Z score is 0.46.

In the case of `Cc1c(Br)cccc1CC(CO)CNC1COC2(CCC2)C1` (centres undefined), the “% Inhibition” value is given as -5% and the Z score turned out to be 0.94.

In the case of `OC[C@@]1(CCOc2ccccc2)CCCN(Cc2ccoc2)C1`, the “% Inhibition” value was -10% and the Z score is on record as 0.92.

In the case of `CCCCNc1nc2c(s1)C[C@]1(C)CC[C@@H]([C@H](C)C(=O)NCCOC)[C@H](O)[C@H]1[C@@H]2C`, the “% Inhibition” value was -5% and the Z score is reported as 0.84.

Regarding `O=C(c1cnccn1)N1C[C@H]2CC[C@@H](C1)N(C(=O)c1ccc(Cl)s1)C2`, the “% Inhibition” value is listed as -4% and the Z score is reported as 0.62.

Consider `O=C1C2C3c4ccccc4C(c4ccccc43)[C@@H]2C(=O)N1c1cccnc1` (some centres undefined), for which the “% Inhibition” value is recorded as -5% and the Z score was 0.6.

For `CC(NC(=O)c1ccc(F)c(Cl)c1)C(C)C(=O)O` (centres undefined), the “% Inhibition” value is reported as 2% and the Z score is -0.32.

As to `C#CCNC(=O)c1ccccc1NCCCS(C)(=O)=O`, the “% Inhibition” value was -7% and the Z score worked out at 1.24.

As to `Cc1nc(N)nc2[nH]c(=O)n(-c3ccccc3)c(=O)c12`, the “% Inhibition” value is listed as -1% and the Z score is listed as 0.09.

Regarding `Cc1ccc2nnc(-c3ccccc3)c(C(=O)N3CCN(c4ccc(F)cc4)CC3)c2c1`, the “% Inhibition” value is recorded as -4% and the Z score was 0.54.

As to `CC(=O)c1cccc(S(=O)(=O)N2CCc3nc(NC(=O)c4cnccn4)sc3C2)c1`, the “% Inhibition” value is given as -8% and the Z score was 1.62.

Consider `CS(=O)(=O)N(CC(=O)N(Cc1ccco1)C[C@H]1CCCO1)C1CC1`, for which the “% Inhibition” value worked out at 3% and the Z score is given as -0.4.

In the case of `Cc1nc(COc2nc(C(C)(C)C)no2)sc1C`, the “% Inhibition” value was -11% and the Z score was determined as 2.04.

In the case of `O=C1NCCN1C(=O)N1CCC[C@H](Oc2cccnn2)C1`, the “% Inhibition” value is reported as -4% and the Z score was found to be 0.71.

Take `CCN(CC)C(=O)c1cn([C@H]2CC[C@@H](NC(=O)c3ccc(Oc4ccccc4)o3)CC2)nn1`: the “% Inhibition” value stood at 9% and the Z score is listed as -1.15.

For `CCCc1[nH]nc(-c2cccc(OC)c2)c1NC(=O)COc1ccc(Cl)cc1`, the “% Inhibition” value is given as -8% and the Z score is reported as 1.18.

On to `O=C(COc1cccc(Cl)c1)N[C@@H]1CCCC[C@H]1O`, for which the “% Inhibition” value is reported as -11% and the Z score is reported as 1.55.

(Values after ChEMBL document CHEMBL4888484, “Replenishing the malaria drug discovery pipeline: Screening and hit evaluation of the MMV Hit Generation Library 1 (HGL1) against asexual blood stage Plasmodium falciparum ,using a nano luciferase reporter read-out” (2022).)
